Results are given in words; binding and its absence hold for the method and conditions named. Binding seen in cells or lysates may run through a third protein. Some results given as binding are weak or reduced against the parent protein; the word gives no strength. For part of these data: Where a sequence is shown, tags or fusion partners need not be part of it.

By UniProt entry, the sequences of proteins in these tests, tags left out. Where a name states a change or a piece, a line headed by the entry shows the natural chain unless it says otherwise. Chains listed by the source or under a name are the forms on record and can include a tag or linker.
UniProt O14733: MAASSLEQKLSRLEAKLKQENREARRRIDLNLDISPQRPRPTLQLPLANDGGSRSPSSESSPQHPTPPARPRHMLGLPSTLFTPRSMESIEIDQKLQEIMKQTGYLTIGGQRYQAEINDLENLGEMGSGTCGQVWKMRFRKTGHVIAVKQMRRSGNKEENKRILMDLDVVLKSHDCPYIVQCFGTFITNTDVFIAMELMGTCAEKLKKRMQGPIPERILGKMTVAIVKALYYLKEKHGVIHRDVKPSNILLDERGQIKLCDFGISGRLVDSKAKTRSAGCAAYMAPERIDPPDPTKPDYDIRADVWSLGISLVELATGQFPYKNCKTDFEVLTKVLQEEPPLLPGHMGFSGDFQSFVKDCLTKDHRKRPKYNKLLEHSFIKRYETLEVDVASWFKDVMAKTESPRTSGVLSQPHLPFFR
UniProt P45985: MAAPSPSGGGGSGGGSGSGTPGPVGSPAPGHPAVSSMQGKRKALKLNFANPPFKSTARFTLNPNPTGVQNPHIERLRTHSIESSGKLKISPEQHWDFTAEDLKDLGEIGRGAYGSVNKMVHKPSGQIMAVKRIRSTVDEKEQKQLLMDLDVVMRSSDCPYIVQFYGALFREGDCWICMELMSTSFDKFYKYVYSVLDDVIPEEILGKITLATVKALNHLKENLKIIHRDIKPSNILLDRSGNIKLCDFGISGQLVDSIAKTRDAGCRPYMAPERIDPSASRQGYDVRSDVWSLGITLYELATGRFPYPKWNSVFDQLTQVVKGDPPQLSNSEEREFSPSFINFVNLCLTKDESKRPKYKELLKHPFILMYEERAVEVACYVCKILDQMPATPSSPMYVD
UniProt Q8IUH5: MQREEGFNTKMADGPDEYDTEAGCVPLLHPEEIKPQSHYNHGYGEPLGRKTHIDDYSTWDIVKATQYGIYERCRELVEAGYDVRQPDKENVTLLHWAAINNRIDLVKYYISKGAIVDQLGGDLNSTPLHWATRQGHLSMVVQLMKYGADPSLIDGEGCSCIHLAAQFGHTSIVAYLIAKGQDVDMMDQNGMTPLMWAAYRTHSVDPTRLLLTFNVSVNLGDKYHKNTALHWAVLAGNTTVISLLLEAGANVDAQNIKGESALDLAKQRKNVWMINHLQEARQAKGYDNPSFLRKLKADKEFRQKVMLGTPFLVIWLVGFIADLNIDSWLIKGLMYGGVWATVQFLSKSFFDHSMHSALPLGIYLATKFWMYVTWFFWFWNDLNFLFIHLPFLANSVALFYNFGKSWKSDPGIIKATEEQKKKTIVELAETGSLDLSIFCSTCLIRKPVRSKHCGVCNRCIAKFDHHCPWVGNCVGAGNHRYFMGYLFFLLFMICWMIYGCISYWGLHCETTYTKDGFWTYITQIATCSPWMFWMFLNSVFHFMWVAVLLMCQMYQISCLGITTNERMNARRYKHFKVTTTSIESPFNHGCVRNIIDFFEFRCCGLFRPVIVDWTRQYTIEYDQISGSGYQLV
Myc-ZDHHC17 ΔANK (Q8IUH5, form named): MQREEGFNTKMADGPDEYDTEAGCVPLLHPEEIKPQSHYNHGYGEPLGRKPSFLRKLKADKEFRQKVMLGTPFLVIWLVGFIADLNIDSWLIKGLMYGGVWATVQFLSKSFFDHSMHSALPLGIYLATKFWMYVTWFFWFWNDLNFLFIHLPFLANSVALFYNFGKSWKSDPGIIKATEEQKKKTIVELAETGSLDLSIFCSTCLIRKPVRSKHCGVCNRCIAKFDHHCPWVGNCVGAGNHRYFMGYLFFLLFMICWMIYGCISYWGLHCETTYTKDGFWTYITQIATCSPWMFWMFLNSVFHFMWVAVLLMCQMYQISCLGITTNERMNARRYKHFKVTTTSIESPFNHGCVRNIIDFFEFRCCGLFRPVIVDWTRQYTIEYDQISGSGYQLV
Myc-ZDHHC17 ΔDHHC (Q8IUH5, form named): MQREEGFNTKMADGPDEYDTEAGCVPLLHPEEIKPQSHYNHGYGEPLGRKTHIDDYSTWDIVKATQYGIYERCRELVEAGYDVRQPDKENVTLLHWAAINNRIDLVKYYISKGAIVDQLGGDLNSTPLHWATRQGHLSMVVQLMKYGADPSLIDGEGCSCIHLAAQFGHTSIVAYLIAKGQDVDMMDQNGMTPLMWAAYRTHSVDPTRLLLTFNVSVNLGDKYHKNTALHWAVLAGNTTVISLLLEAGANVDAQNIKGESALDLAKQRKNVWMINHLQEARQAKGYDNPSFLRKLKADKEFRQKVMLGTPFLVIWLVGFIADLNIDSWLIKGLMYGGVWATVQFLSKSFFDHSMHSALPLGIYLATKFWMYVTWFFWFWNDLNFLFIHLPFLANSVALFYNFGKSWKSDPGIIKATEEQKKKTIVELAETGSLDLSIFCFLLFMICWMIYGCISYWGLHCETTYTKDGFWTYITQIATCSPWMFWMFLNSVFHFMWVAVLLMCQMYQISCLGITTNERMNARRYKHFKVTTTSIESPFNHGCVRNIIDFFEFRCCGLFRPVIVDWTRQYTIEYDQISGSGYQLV

Consider three substances from article PMC6956818, “Activation of JNK and p38 MAPK Mediated by ZDHHC17 Drives Glioblastoma Multiforme Development and Malignant Progression” (Theranostics, 2020).

Common to all, as to assay: co-IP; lysates (RIPA buffer) of HEK293 cells co-expressing Myc-ZDHHC17 (or its mutants) and Flag-MAPKKs (or MAP2K4 mutants); IP with agarose-immobilized antibody at 4 °C overnight, IB with anti-FLAG and anti-Myc
Assay [1] has as its target T1, Flag-MAP2K3 (UniProt P46734).
T1 sequence: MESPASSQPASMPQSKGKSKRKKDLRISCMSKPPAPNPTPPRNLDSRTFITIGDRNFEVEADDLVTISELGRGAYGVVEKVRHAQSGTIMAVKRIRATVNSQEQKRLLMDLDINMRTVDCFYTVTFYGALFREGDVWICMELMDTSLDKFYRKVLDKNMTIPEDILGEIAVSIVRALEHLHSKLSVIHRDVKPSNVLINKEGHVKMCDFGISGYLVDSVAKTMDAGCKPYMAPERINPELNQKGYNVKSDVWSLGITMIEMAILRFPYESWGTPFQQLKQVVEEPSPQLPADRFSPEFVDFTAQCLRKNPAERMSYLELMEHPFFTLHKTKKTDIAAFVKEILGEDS

Assay [2] has as its target Flag-MAP2K2 (UniProt P36507).
In assay [3] the target is T2, Flag-MAP2K6 (UniProt P52564).
T2 sequence: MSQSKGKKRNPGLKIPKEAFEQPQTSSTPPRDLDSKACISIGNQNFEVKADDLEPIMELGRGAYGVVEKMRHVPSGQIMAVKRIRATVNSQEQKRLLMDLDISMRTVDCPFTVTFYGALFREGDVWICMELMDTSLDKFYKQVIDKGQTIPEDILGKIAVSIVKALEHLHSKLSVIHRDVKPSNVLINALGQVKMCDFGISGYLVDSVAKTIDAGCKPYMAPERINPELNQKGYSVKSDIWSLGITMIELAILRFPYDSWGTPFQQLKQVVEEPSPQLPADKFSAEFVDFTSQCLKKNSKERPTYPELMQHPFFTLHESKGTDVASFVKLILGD

For assay [4], the target named is Flag-MAP2K7 (UniProt O14733).
Assay [5] deals with Flag-MAP2K4 (human) (UniProt P45985).

Myc-ZDHHC17 (from UniProt Q8IUH5 1-632): the binding result in assay [1] is given as “no binding”; in assay [2], “no binding”; in assay [3], “no binding”; in assay [4], “binds”.
In the case of “Myc-ZDHHC17 ΔANK (from UniProt Q8IUH5 1-632)”, in assay [5], the binding entry is listed as “no binding”.
Take “Myc-ZDHHC17 ΔDHHC (from UniProt Q8IUH5 1-632)”: the binding entry in assay [5] is “binds”.
